Experimental data taken from the supplement of paper PMC4604168 (melanoma cell lines).
Some of the results follow. Repeats are few or missing, and single values can be far off.

Test system: COLO829
Test: cell count relative to DMSO control; melanoma cells; higher = more viable cells
Conditions: library dose: standard library concentration; 72 h
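Note: cells treated in 1,536-well plates, then fixed and DAPI-stained, with nuclei counted from automated high-throughput microscope images.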

**Q.** O=C(O)c1ccc(-c2c[nH]c3ncc(-c4ccccc4)cc23)cc1C1CCCC1 + NCC(=O)Nc1ccc(-n2nc(C(F)(F)F)cc2-c2ccc3c(ccc4ccccc43)c2)cc1 [OSU03012] (first compound 0.8 µM, partner dose 5 µM) was tested. Which cell count did it give?
**A.** The cell count was 89.5%.

**Q.** With C[C@@H]1CCN(C(=O)CC#N)C[C@@H]1N(C)c1ncnc2[nH]ccc12 + COc1cc2ncnc(Nc3ccc(Oc4ccccc4)cc3)c2cc1OC [SrcI1] (first compound 5 µM, partner dose 10 µM) as the molecule, how does the cell count read?
**A.** The cell count was 130%.

**Q.** COc1cc(Nc2ncc(F)c(Nc3ccc4c(n3)NC(=O)C(C)(C)O4)n2)cc(OC)c1OC [Tamatinib] + NCC(=O)Nc1ccc(-n2nc(C(F)(F)F)cc2-c2ccc3c(ccc4ccccc43)c2)cc1 [OSU03012] (first compound 2 µM, partner dose 5 µM) was tested. Which cell count did it give?
**A.** The cell count was 64.3%.

**Q.** CC1(C)NC(=O)N(c2ccc([N+](=O)[O-])c(C(F)(F)F)c2)C1=O [nilutamide] + CN(C)S(=O)(=O)c1ccc2c(c1)/C(=C/c1cc3c([nH]1)CCCC3)C(=O)N2 [SU6656] (first compound 5 µM, partner dose 2 µM) was tested. Which cell count did it give?
**A.** The cell count was 90.2%.

**Q.** For COc1cc(Nc2ncc(F)c(Nc3ccc4c(n3)NC(=O)C(C)(C)O4)n2)cc(OC)c1OC [Tamatinib] + CO[C@@H]1[C@H](N(C)C(=O)c2ccccc2)C[C@H]2O[C@]1(C)n1c3ccccc3c3c4c(c5c6ccccc6n2c5c31)C(=O)NC4 [Midostaurin] (first compound 2 µM, partner dose 0.4 µM), which cell count is on record?
**A.** Its cell count is 71.2%.
